Data on eleven molecules can be found in PubChem BioAssay (NCATS).

The other results are listed elsewhere or left out. Further columns of the screen follow, without active or inactive calls. For some assays here: Compounds called inactive in the main read-out are mostly missing here. Potencies come from curve fits of mixed quality, noted in brackets.

A short description of assay [1]: qHTS drug screen for cell cycle checkpoint inhibitors in PARPi-resistant BRCA-mutant ovarian cancer cell lines. (AID 1963452). Particulars: PEO1/OlaR viability, CellTiter-Glo luminescence, 96 h. A digest of the protocol: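 PEO1, PEO4 and PEO1/OlaR ovarian cancer cells, 600 per well, exposed 96 h at 37C to a dilution series. Viability read by CellTiter-Glo luminescence, normalized to DMSO and empty wells; activity summarized as Z-AUC.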
(Quantitative high-throughput screening tests each substance at several concentrations.)

A short description of assay [2]: qHTS for identification of novel therapeutic agents for treatment of microphthalmiaassociated transcription factor (MiT) renal cell carcinoma (RCC) (AID 1963991). As to conditions: CellTiter-Glo, 48 h; for z-score: stronger effect = lower value. In a few lines:
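Viability of three TFE3-fusion renal carcinoma lines measured by CellTiter-Glo after 48 h treatment with each of 1912 compounds at 11 concentrations. Responses scaled between DMSO (100%) and empty wells (0%) before curve fitting.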

Setting [3] is: measured here: PEO1 parental viability.
[4] abbreviates: TFE3-RCC UOK109 viability, measured here: UOK109 Z-AUC.
[5] abbreviates: TFE3-RCC viability, measured here: UOK124 Z-AUC.
Where [6] appears, read: TFE3-RCC viability, measured here: UOK124 cell viability.
[7] abbreviates: TFE3-RCC viability, measured here: UOK145 Z-AUC.
[8] abbreviates: TFE3-RCC viability, measured here: UOK145 cell viability.
Tags describe the fitted curve by direction and shape.

On to `COc1cc2nccc(Oc3ccc(NC(=O)Nc4cc(C)on4)c(Cl)c3)c2cc1OC`, for which the AC50 – broadly, the concentration giving half of the maximal activity seen – is 2.19 µM [falling, full curve] in assay [1] (setting [3]); 3.09 µM [falling, full curve] in assay [1] (measured here: PEO4 viability); 20.9 µM [falling, partial curve] in assay [2] (setting [6]); 16.6 µM [falling, partial curve] in assay [2] (setting [8]). The z-score was 0.383 in assay [2] (setting [4]), 0.827 in assay [2] (setting [5]) and 0.123 in assay [2] (setting [7]).

With `C=C1C(=O)[C@@]23C(CC[C@@H]1[C@H]2O)[C@@]12CO[C@]3(O)[C@@H](O)[C@@H]1C(C)(C)CC[C@@H]2O` (some centres not stated), the AC50 in assay [1] (setting [3]) is 24.5 µM [falling, single point]; in assay [1] (measured here: PEO4 viability), 24.5 µM [falling, single point]; in assay [2] (setting [6]), 29.6 µM [falling, single point]; in assay [2] (setting [8]) it was 14.8 µM [falling, partial curve]. The z-score in assay [2] (setting [4]) is 0.26; in assay [2] (setting [5]), 0.264; in assay [2] (setting [7]), -1.07.

Turning to `Cn1cc(-c2[nH]c3cc(NC(=O)[C@H](N)C4CCCCC4)cc4c3c2C=NNC4=O)cn1`, the half-maximal activity concentration (AC50) is 1.23 µM [falling, full curve] in assay [1] (setting [3]); 1.23 µM [falling, full curve] in assay [1] (measured here: PEO4 viability); 4.69 µM [falling, full curve] in assay [2] (setting [6]); 5.9 µM [falling, full curve] in assay [2] (setting [8]). In addition, the figures for the z-score in assay [2] (setting [4]), in assay [2] (setting [5]) and in assay [2] (setting [7]) were -0.119, -0.638 and -0.543, respectively.

In the case of `CCN1CCN(Cc2ccc(-c3cc4c(N[C@H](C)c5ccccc5)ncnc4[nH]3)cc2)CC1`, the AC50 in assay [1] (setting [3]) is 17.4 µM [falling, single point]; in assay [1] (measured here: PEO4 viability) it was 19.5 µM [falling, partial curve]; in assay [2] (setting [6]), 16.6 µM [falling, partial curve]; in assay [2] (setting [8]) it was 0.0833 µM [falling, partial curve, poor fit]. For the same molecule, the z-score is -3.32 in assay [2] (setting [4]), -0.592 in assay [2] (setting [5]) and -1.68 in assay [2] (setting [7]).

Consider `Cc1nc(N)ncc1-c1nc(N2CCOCC2)c2sc(C(C)(C)O)cc2n1`, for which the AC50 is 2.45 µM [falling, partial curve] in assay [1] (setting [3]); 11 µM [falling, partial curve] in assay [1] (measured here: PEO4 viability); 2.09 µM [falling, full curve] in assay [2] (setting [6]); 2.35 µM [falling, full curve] in assay [2] (setting [8]). Besides, the z-score in assay [2] (setting [4]) is -1.87; in assay [2] (setting [5]), -0.671; in assay [2] (setting [7]) it was -0.594.

Regarding `Cc1ccc(S(=O)(=O)Nc2cc(Cl)ccc2C(=O)Nc2nc(-c3ccccc3)cs2)cc1`, the AC50 in assay [1] (setting [3]) is 2.19 µM [falling, full curve]; in assay [1] (measured here: PEO4 viability), 1.38 µM [falling, full curve]; in assay [2] (setting [6]) it was 8.33 µM [falling, full curve]; in assay [2] (setting [8]) it was 4.69 µM [falling, full curve]. The z-score in assay [2] (setting [4]) is 0.4; in assay [2] (setting [5]) it was 0.436; in assay [2] (setting [7]), -0.0149.

Regarding `Cc1ccc(F)c(NC(=O)Nc2ccc(-c3cccc4[nH]nc(N)c34)cc2)c1`, the AC50 in assay [1] (setting [3]) was 13.8 µM [falling, partial curve]; in assay [1] (measured here: PEO4 viability) it was 15.5 µM [falling, partial curve]; in assay [2] (setting [6]), 33.2 µM [falling, single point]; in assay [2] (setting [8]) it was 37.2 µM [falling, single point]. Moreover, the z-score amounted to 0.604 in assay [2] (setting [4]), 0.52 in assay [2] (setting [5]) and 0.645 in assay [2] (setting [7]).

Turning to `C=CC(=O)Nc1cccc(Sc2nc(Nc3ccc(N4CCN(C)CC4)cc3)ncc2Cl)c1`, the AC50 in assay [1] (setting [3]) was 8.71 µM [falling, partial curve]; in assay [1] (measured here: PEO4 viability), 4.9 µM [falling, partial curve]; in assay [2] (setting [6]) it was 37.2 µM [falling, single point]; in assay [2] (setting [8]), 37.2 µM [falling, single point]. Moreover, the z-score in assay [2] (setting [4]) was -1.78; in assay [2] (setting [5]), -0.532; in assay [2] (setting [7]) it was -0.258.

Regarding `O=c1[nH]nc(OCCCc2ccc(Cl)cc2)c(NCc2cccnc2)c1Br`, the AC50 in assay [1] (setting [3]) was 3.47 µM [falling, full curve]; in assay [1] (measured here: PEO4 viability), 2.75 µM [falling, full curve, poor fit]; in assay [2] (setting [6]), 16.6 µM [falling, partial curve]; in assay [2] (setting [8]), 23.5 µM [falling, partial curve]. For the same molecule, the figures for the z-score in assay [2] (setting [4]), in assay [2] (setting [5]) and in assay [2] (setting [7]) were -0.0319, -0.16 and -0.139, respectively.

Turning to `CC(C)CC(=O)Nc1n[nH]c2c1CN(C(=O)C1CCN(C)CC1)C2(C)C`, the AC50 in assay [1] (setting [3]) is 4.9 µM [falling, full curve]; in assay [1] (measured here: PEO4 viability) it was 2.45 µM [falling, full curve]; in assay [2] (setting [6]) it was 5.26 µM [falling, full curve]; in assay [2] (setting [8]), 3.32 µM [falling, full curve]. In addition, the z-score in assay [2] (setting [4]) is -1.12; in assay [2] (setting [5]), 0.239; in assay [2] (setting [7]), -1.1.

`Cc1cc(Nc2cc(CN3CCOCC3)c3nc(C)c(Cc4ccc(Cl)cc4F)n3n2)n[nH]1`: the AC50 in assay [1] (setting [3]) was 17.4 µM [falling, partial curve]; in assay [1] (measured here: PEO4 viability), 0.123 µM [falling, full curve]; in assay [2] (setting [6]) it was 16.6 µM [falling, partial curve]; in assay [2] (setting [8]), 20.9 µM [falling, partial curve]. The z-score in assay [2] (setting [4]) was 0.283; in assay [2] (setting [5]) it was -0.584; in assay [2] (setting [7]), 0.463.
